Source: PubChem BioAssay (NCATS)
Several values for one entry are separate records, joined by “and”; a condition that tells them apart may be missing. Equal entries are not always repeated. Inconclusive results, whose numbers are uncertain, are shown with a selection of clear calls. Potencies of inconclusive entries are doubtful fits and often do not repeat. Some compounds were tested as several samples or in several runs, with calls that do not always agree. Activity calls are given as the source filed them. The call rests on the fitted dose curve; in most records, active means well fitted curve in the direction sought with a large enough effect; inconclusive means small, poorly fitted or top-dose-only effect, or another doubt; inactive means no such curve, though single readings can be large; an effect the other way counts as inactive or inconclusive.

What was measured:
[1] = molecular target: Cytochrome P450 3A7 (Homo sapiens) (UniProt P24462); assay: Cytochrome P450 family 3 subfamily A member 7 (CYP3A7) small molecule antagonists: luciferase biochemical qHTS assay (AID 1963596); further: nearly all actives have a fitted effect of over 40% in size
Chain of UniProt P24462 (P24462 whole entry, looked up): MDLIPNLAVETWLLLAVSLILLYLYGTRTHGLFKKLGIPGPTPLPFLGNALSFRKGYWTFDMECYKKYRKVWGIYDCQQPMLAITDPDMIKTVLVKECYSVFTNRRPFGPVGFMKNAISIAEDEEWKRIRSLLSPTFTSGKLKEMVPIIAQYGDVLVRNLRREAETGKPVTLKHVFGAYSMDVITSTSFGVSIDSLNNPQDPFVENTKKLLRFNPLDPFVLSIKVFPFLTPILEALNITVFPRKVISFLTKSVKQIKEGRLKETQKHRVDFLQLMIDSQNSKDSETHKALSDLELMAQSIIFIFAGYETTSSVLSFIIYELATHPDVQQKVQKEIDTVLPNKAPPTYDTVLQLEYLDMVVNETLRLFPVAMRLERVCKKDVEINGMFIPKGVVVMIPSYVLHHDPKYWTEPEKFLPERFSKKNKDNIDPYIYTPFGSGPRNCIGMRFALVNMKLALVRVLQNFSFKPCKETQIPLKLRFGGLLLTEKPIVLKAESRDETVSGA
Summary of the method: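 P450-Glo luminescent assay: CYP3A7 enzyme converts a proluciferin substrate to luciferin, detected by luciferase reagent; light proportional to activity. Compounds in DMSO preincubated 10 min with enzyme-substrate mix at room temperature, then NADPH regeneration added for 1 h.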

[2] = Viability qHTS for spleen associated tyrosine kinase inhibitor (SYKi) naive MV4-11 cells (AID 1963823); conditions: MV4-11 AML viability, CellTiter-Glo luminescence, 72 h; viability (% of control): at 45 µM (top of the series); further: nearly all actives have a fitted effect of over 40% in size
Summary of the method: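 qHTS, SYK inhibitor-naive MV4-11; 500 cells/well; 72 hr compound exposure, 37 C; CellTiter-Glo added, 10 min RT; luminescence read.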

[3] = Viability qHTS for spleen associated tyrosine kinase inhibitor (SYKi) drug resistant MV4-11 cells (AID 1963824); further: nearly all actives have a fitted effect of over 35% in size
Summary of the method: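 CellTiter-Glo luminescence, read 10 min after reagent addition, reports viability after a 72 hr compound exposure. Cells are an MV4-11 line made resistant to SYK inhibition, seeded at 500 per well onto compound-containing plates.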

[4] = Quantitative highthroughput screen to assess conditional lethalithy of NOMO1 cells grown in RPMI1640 with untreated serum (RPMI+s) (AID 1963876); conditions: NOMO1 AML cells in RPMI+serum, CellTiter-Glo viability, 48 h; viability: at 45.8 µM (top of the series); further: nearly all actives have a fitted effect of over 35% in size;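 on Viability: 100% = DMSO wells and 0% = empty wells without cells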
Summary of the method: (§1)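 Each medium arm—HPLM with 10% dialyzed FBS, or RPMI1640 with 5 mM glucose and 10% untreated or dialyzed FBS—was screened against an 11-point, 3-fold compound titration for 48 h at 37 °C, with CellTiter-Glo luminescence as endpoint.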

[5] = Quantitative highthroughput screen to assess conditional lethalithy of NOMO1 cells grown in RPMI1640 with dialyzed fetal bovine serum (RPMI+ds) (AID 1963877); further: nearly all actives have a fitted effect of over 30% in size;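 on Viability: 100% = DMSO control wells and 0% = empty wells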
Summary of the method: as §1

[6] = Quantitative highthroughput screen to assess conditional lethalithy of NOMO1 cells grown in Human Plasma-Like Medium with dialyzed fetal bovine serum (HPLM+ds) (AID 1963878); conditions: NOMO1 AML cells in HPLM+ds, CellTiter-Glo viability, 48 h; viability: at 45.8 µM (top of the series); further: nearly all actives have a fitted effect of over 35% in size
Summary of the method: as §1

[7] = Quantitative highthroughput screen to assess conditional lethalithy of P12 Ichikawa cells grown in Human Plasma-Like Medium with dialyzed fetal bovine serum (HPLM+ds) (AID 1963879); conditions: Potency: viability; further: nearly all actives have a fitted effect of over 35% in size
Summary of the method: as §1

[8] = Quantitative highthroughput screen to assess conditional lethalithy of P12 Ichikawa cells grown in RPMI1640 with untreated serum (RPMI+s) (AID 1963881); conditions: Potency: viability; further: nearly all actives have a fitted effect of over 35% in size;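 on Viability: 100% = DMSO wells and 0% = empty wells without cells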
Summary of the method: as §1

[9] = Quantitative highthroughput screen to assess conditional lethalithy of SEM cells grown in RPMI1640 with unreated serum (RPMI+s) (AID 1963883); conditions: SEM B-ALL cells, CellTiter-Glo viability, 48 h; viability: at 45.8 µM (top of the series); further: nearly all actives have a fitted effect of over 35% in size;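 on Viability: 100% = DMSO wells and 0% = empty wells without cells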
Summary of the method: as §1

[10] = Quantitative highthroughput screen to assess conditional lethalithy of SEM cells grown in RPMI1640 with dialyzed fetal bovine serum (RPMI+ds) (AID 1963884); conditions: SEM B-ALL cells, RPMI+dialyzed FBS, CellTiter-Glo viability, 48 h; viability: at 45.8 µM (top of the series); further: nearly all actives have a fitted effect of over 35% in size;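 on Viability: 100% = DMSO control wells and 0% = empty wells without cells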
Summary of the method: as §1

[11] = Quantitative highthroughput screen to assess conditional lethalithy of P12 Ichikawa cells grown in RPMI1640 with dialyzed fetal bovine serum (RPMI+ds) (AID 1963880); conditions: Potency: P12-Ichikawa viability; further: nearly all actives have a fitted effect of over 35% in size;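 on Viability: 100% = DMSO wells and 0% = empty wells on each plate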
Summary of the method: as §1

[12] = Quantitative highthroughput screen to assess conditional lethalithy of SEM cells grown in Human Plasma-Like Medium with dialyzed fetal bovine serum (HPLM+ds) (AID 1963882); further: nearly all actives have a fitted effect of over 35% in size
Summary of the method: as §1

[13] = Cellular viability qHTS for adrenocortical cancer (ACC) cell line SW-13 (AID 1963989); conditions: SW-13 ACC cells viability, CellTiter-Glo, 48 h; activity (max response): stronger effect = lower value; further: nearly all actives have a fitted effect of over 65% in size;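 on activity (max response): cells grown in serum-free medium with ITS supplement; on the % scale 0 is the no-effect control and ±100 the full control effect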
Summary of the method: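 IC50 and maximal-response values come from four-parameter logistic fits of titration data. SW-13 cells in serum-free medium received compounds (up to 46 uM final) for 48 h before CellTiter-Glo luminescence.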

[14] = Cellular viability qHTS for adrenocortical cancer (ACC) cell line NCI-H295R (AID 1963990); conditions: CellTiter-Glo ATP luminescence, 48 h; activity change, negative = viability loss: at 46.1 µM (top of the series); further: nearly all actives have a fitted effect of over 60% in size;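 on activity change, negative = viability loss: 0% = DMSO only wells and -100% = full killing with cytotoxic reference compound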
Summary of the method: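 Adrenocortical carcinoma cells, suspended at 300 000 cells/mL in serum-free DMEM plus ITS, rested overnight before pin transfer of compound. After two days' incubation, ATP-dependent luminescence was recorded and curve-fitted.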
Potency means the concentration at half of the fitted maximal effect; tags describe the fitted curve by direction and shape.

Row | Compound | Potency [1] | Potency [2] | Potency [3] | Potency [4] | Potency [5] | Potency [6] | Potency [7] | Potency [8] | Potency [9] | Potency [10] | Potency [11] | Potency [12] | Potency [13] | Potency [14] | activity (max response) [13]
1 | COc1cc(OC)c(C(=O)CCCN2CCCC2)c(OC)c1 | inactive | inactive | inactive | inactive | inactive | inconclusive: 9.35 µM [cytotoxic, full curve, poor fit] | inactive | inactive | inactive | inactive | – | – | – | – | –
2 | OC(CCN1CCCCC1)(c1ccccc1)C1CC2C=CC1C2 (stereo unspecified) | inconclusive: 30.9 µM [inhibitor, single point] | inactive and inconclusive: 16.6 µM [cytotoxic, partial curve] | inactive | inactive | inactive | inconclusive: 18.7 µM [cytotoxic, partial curve, poor fit] | – | – | – | – | – | – | – | – | –
3 | CCCS(=O)c1ccc2nc(NC(=O)OC)[nH]c2c1 (stereo unspecified) | inconclusive: 38.9 µM [inhibitor, partial curve, poor fit] | inconclusive: 21.1 µM [cytotoxic, partial curve] and inconclusive: 29.5 µM [cytotoxic, single point] and inconclusive: 16.4 µM [cytotoxic, single point] | inconclusive: 23.1 µM [cytotoxic, partial curve] | – | inconclusive: 18.7 µM [cytotoxic, partial curve] | – | inconclusive: 9.35 µM [cytotoxic, full curve] | inconclusive: 14.8 µM [cytotoxic, partial curve] | inconclusive: 8.33 µM [cytotoxic, full curve] | active: 9.35 µM | inconclusive: 16.6 µM [cytotoxic, partial curve] | inconclusive: 10.5 µM [cytotoxic, full curve] | inconclusive: 29.1 µM [cytotoxic, single point] and active: 25.1 µM | inconclusive: 5.17 µM [cytotoxic, partial curve, poor fit] and inconclusive: 31.6 µM [cytotoxic, single point] | –
4 | CCN(CC)CCOc1ccc(Cc2ccccc2)cc1 | inconclusive: 21.9 µM [inhibitor, single point] | inconclusive: 15 µM [cytotoxic, partial curve] and inconclusive: 14.8 µM [cytotoxic, partial curve, poor fit] | inconclusive: 26.6 µM [cytotoxic, single point] and inconclusive: 20.9 µM [cytotoxic, partial curve] | active: 10.5 µM | – | – | inconclusive: 7.43 µM [cytotoxic, full curve] | inactive | – | – | inconclusive: 13.2 µM [cytotoxic, partial curve] | inconclusive: 23.5 µM [cytotoxic, partial curve] | inconclusive: 23.1 µM [cytotoxic, partial curve, poor fit] | – | –
5 | Clc1ccc(C2(c3ccc(-c4cn[nH]c4)cc3)CCNCC2)cc1 | active: 12.6 µM | active: 2.31 µM and active: 2.63 µM | active: 5.17 µM and active: 7.42 µM | – | active: 4.18 µM | active: 3.32 µM | – | inconclusive: 5.9 µM [cytotoxic, full curve] | – | inconclusive: 11.8 µM [cytotoxic, partial curve] | inconclusive: 5.26 µM [cytotoxic, full curve] | inconclusive: 7.43 µM [cytotoxic, full curve] | inconclusive: 28.2 µM [cytotoxic, single point] | – | –
6 | NC(=O)N1c2ccccc2CC(=O)c2ccccc21 | inconclusive: 4.36 µM [inhibitor, full curve] | inconclusive: 0.75 µM [cytotoxic, full curve, poor fit] | inconclusive: 5.96 µM [cytotoxic, full curve] | inactive | – | inconclusive: 16.6 µM [rising, partial curve, poor fit] | inactive | inactive | – | inactive | – | inactive | – | inconclusive: 9.2 µM [cytotoxic, partial curve] | –
7 | NCc1c[nH]c(=S)n1C1CCc2c(F)cc(F)cc2C1 (stereo unspecified) | active: 15.1 µM | inconclusive: 20.6 µM [cytotoxic, partial curve, poor fit] | inconclusive: 29.1 µM [cytotoxic, single point] | – | – | – | – | – | – | – | – | – | – | – | –
8 | CN1CCN(c2c(F)cc3c(=O)c(C(=O)O)cn4c3c2OCN4C)CC1 | inconclusive: 12 µM [inhibitor, single point] | inactive | inactive | inconclusive: 29.6 µM [cytotoxic, single point] | inconclusive: 37.2 µM [cytotoxic, partial curve, poor fit] | inconclusive: 33.2 µM [cytotoxic, single point] | – | – | – | – | – | inconclusive: 0.0012 µM [rising, full curve] | – | – | –
9 | CN(Cc1cc(Br)cc(Br)c1N)C1CCCCC1 | inconclusive: 12.3 µM [inhibitor, partial curve, poor fit] | inconclusive: 3.76 µM [cytotoxic, partial curve, poor fit] and inconclusive: 20.9 µM [cytotoxic, partial curve] | active: 10.6 µM and inconclusive: 23.5 µM [cytotoxic, partial curve] | inactive | – | inconclusive: 4.18 µM [rising, partial curve, poor fit] | inactive | inactive | – | inactive | inactive | – | – | inconclusive: 20.6 µM [cytotoxic, single point] and inconclusive: 25.1 µM [cytotoxic, partial curve, poor fit] | –
10 | COc1cc2c(Nc3ccc(Br)cc3F)ncnc2cc1OCC1CCN(C)CC1 | inactive | inactive and active: 820 nM and inconclusive: 1.48 µM [cytotoxic, full curve] | inactive | – | inconclusive: 11.8 µM [cytotoxic, single point] | inconclusive: 11.8 µM [cytotoxic, single point] | – | inactive | inconclusive: 3.72 µM [cytotoxic, partial curve, poor fit] | inconclusive: 0.0012 µM [rising, full curve, poor fit] | – | inconclusive: 10.5 µM [cytotoxic, single point] | active: 17.8 µM | inactive and active: 25.1 µM | inactive: -8.28%
11 | COC(=O)Nc1nc2ccc(C(=O)c3cccs3)cc2[nH]1 | inactive | active: 106 nM and inconclusive: 118 nM [cytotoxic, full curve] | active: 42.2 nM and active: 118 nM | inconclusive: 0.0418 µM [cytotoxic, full curve] | inconclusive: 0.0372 µM [cytotoxic, full curve] | – | active: 0.0187 µM | active: 0.0296 µM | inconclusive: 0.0019 µM [cytotoxic, full curve, poor fit] | inconclusive: 0.0132 µM [cytotoxic, full curve] | inconclusive: 0.0372 µM [cytotoxic, full curve] | inconclusive: 0.0148 µM [cytotoxic, full curve] | active: 8.2 nM and active: 126 nM | – | –
12 | CNC(=O)c1ccc(N2C(=S)N(c3cnc(C#N)c(C(F)(F)F)c3)C(=O)C23CCC3)cc1F | inconclusive: 37.9 µM [inhibitor, single point] | inconclusive: 1.64 µM [cytotoxic, full curve] | inconclusive: 20.9 µM [cytotoxic, partial curve] | – | – | inconclusive: 2.96 µM [cytotoxic, full curve] | – | inactive | – | inactive | – | – | – | inconclusive: 31.6 µM [cytotoxic, single point] | –
13 | C=C1[C@H](CO)[C@@H](O)C[C@@H]1n1cnc2c(=O)[nH]c(N)nc21 | inactive | inconclusive: 18.6 µM [cytotoxic, partial curve] | inconclusive: 23.1 µM [cytotoxic, single point] | – | – | – | – | – | – | – | – | – | – | – | inactive: -5.41%
14 | CC1(C)Oc2ccc(C#N)cc2[C@@H](N2CCCC2=O)[C@@H]1O | inactive | inactive | inactive | – | – | – | – | – | – | – | – | – | inconclusive: 18.4 µM [cytotoxic, single point] | – | –
15 | O=C(O)Cc1ccc(OCCNC[C@H](O)c2ccccc2)cc1 | inconclusive: 4.36 µM [inhibitor, single point] | inactive | inconclusive: 26.6 µM [cytotoxic, single point] | – | – | – | – | – | – | – | – | – | – | – | inactive: 0.46%
16 | O=C1OC2(c3ccccc31)c1cc(Br)c(O)c(Br)c1Oc1c2cc(Br)c(O)c1Br | active: 19.5 µM | inactive | inconclusive: 7.5 µM [cytotoxic, partial curve] | – | – | – | – | – | – | – | – | – | inconclusive: 20.6 µM [cytotoxic, single point] | inconclusive: 25.9 µM [cytotoxic, single point] | –
17 | O=c1oc2c(O)c(O)cc3c(=O)oc4c(O)c(O)cc1c4c23 | inactive | inconclusive: 4.07 µM [cytotoxic, partial curve, poor fit] | inconclusive: 6.45 µM [cytotoxic, partial curve, poor fit] | – | – | – | inactive | – | – | inactive | – | – | – | – | inactive: 9.27% and inactive: 2.22%
